# PubChem BioAssay (NCATS)
# This is one part of the list. Shown are side measurements of this screen, not its main read-out; they come without a call. Compounds called inactive in the main read-out are mostly missing here. Potencies come from curve fits of mixed quality, noted in brackets.
# Legend:
# Assay in all cases: Confirmatory Screen for Target Class Profiling of Small Molecule Inhibitors of Methyltransferases (AID 1745852);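 also: inhibitor potency for blocking SAH production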
# [1] = molecular target: Histamine N-methyltransferase (Homo sapiens) (UniProt P50135); details: MTase-Glo luminescence, SAH detection, recombinant enzyme; measured here: HNMT inhibition potency
# [2] = molecular target: Nicotinamide N-methyltransferase (Homo sapiens) (UniProt P40261); details: MTase-Glo luminescence, SAH detection, recombinant enzyme; measured here: NNMT inhibition potency
# [3] = molecular target: Phenylethanolamine N-methyltransferase (Homo sapiens) (UniProt P11086); details: MTase-Glo luminescence, SAH detection, recombinant enzyme; measured here: PNMT inhibition potency
# Tags tell the direction and shape of the fitted curve.
# UniProt P40261, sequence (P40261 whole entry, looked up): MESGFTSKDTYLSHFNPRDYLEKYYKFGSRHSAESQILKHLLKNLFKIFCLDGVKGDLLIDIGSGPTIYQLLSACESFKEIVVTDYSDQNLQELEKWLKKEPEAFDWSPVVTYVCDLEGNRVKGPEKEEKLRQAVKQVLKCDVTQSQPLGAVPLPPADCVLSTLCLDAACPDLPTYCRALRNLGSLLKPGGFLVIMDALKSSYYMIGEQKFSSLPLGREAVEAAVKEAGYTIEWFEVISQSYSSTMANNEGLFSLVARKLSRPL
# UniProt P50135, sequence (P50135 whole entry, looked up): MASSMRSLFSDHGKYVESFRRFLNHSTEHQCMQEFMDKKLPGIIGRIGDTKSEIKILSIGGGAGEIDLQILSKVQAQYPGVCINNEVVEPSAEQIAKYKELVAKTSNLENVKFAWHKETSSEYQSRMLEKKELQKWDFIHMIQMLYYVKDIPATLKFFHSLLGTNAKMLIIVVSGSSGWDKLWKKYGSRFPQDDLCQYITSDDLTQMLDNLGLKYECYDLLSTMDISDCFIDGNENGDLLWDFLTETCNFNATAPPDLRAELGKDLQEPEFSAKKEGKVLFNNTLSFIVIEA
# UniProt P11086, sequence (P11086 whole entry, looked up): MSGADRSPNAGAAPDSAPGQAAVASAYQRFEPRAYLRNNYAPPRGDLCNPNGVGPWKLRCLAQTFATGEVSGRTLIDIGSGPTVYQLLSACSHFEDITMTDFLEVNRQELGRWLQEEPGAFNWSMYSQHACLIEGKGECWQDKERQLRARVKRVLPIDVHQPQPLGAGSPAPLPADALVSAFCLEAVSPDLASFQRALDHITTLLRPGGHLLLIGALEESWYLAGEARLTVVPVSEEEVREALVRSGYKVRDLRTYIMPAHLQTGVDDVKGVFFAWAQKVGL
Structure (SMILES),IC50 [1],IC50 [2],IC50 [3]
CCN1CCN(c2ccc(Nc3ccc(-c4ccc(C(N)=O)cc4)n4ncnc34)cc2)CC1,"24.1 µM [falling, partial curve]","19.2 µM [falling, partial curve]",
CCCCNc1ncc(C(=O)NCc2ccc(-n3ccnc3)cc2)c(NC2CCC(O)CC2)n1 (stereo unspecified),"19.2 µM [falling, partial curve]","19.2 µM [falling, partial curve]","19.2 µM [falling, partial curve]"
CCCC[C@@]1(C2CCCC2)Cc2cc(OCC(=O)O)c(Cl)c(Cl)c2C1=O,"27.3 µM [falling, single point]","19.3 µM [falling, partial curve]",
O=C(NCc1ccc(Oc2ccccc2)cc1)c1nc(-c2cc(Br)c(O)c(Br)c2)no1,"17.1 µM [falling, partial curve]","27.1 µM [falling, partial curve]",
COc1ccc(CNc2cc3c(cn2)CN(Cc2ccccc2)CCN3)cc1OC,"1.24 µM [falling, full curve]","31.2 µM [falling, partial curve]",
COc1cc2nc(N3CCN(C(=O)c4ccco4)C4CCCCC43)nc(N)c2cc1OC (stereo unspecified),"24.1 µM [falling, single point]","24.1 µM [falling, single point]",
O=C(O)/C=C/c1ccc(-c2ccc(O)c(C34CC5CC(CC(C5)C3)C4)c2)cc1,"30.4 µM [falling, single point]","24.1 µM [falling, partial curve]",
NCCCNc1ccc(Nc2nccc(Nc3cc(C4CC4)[nH]n3)n2)cc1,"4.29 µM [falling, full curve]","24.1 µM [falling, partial curve]","21.5 µM [falling, partial curve]"
FC(F)(F)c1cccc(-c2nccn3c(C4CN(Cc5ccc6cn[nH]c6c5)C4)ncc23)c1,"19.2 µM [falling, partial curve]","17.1 µM [falling, partial curve, poor fit]",
CNC(=O)c1ccccc1Nc1nc(Nc2ccc(N3CCNCC3)cc2)ncc1Cl,"21.5 µM [falling, partial curve]","21.5 µM [falling, partial curve]",
COc1ccc(CCN(C)CCCOc2nsc(-c3ccccc3)n2)cc1OC,"15.2 µM [falling, partial curve]","24.1 µM [falling, partial curve]",
CN(C)CCCNc1nc(CN2CCN(C(c3ccc(Cl)cc3)c3ccc(Cl)cc3)CC2)nc2ccccc12,"21.5 µM [falling, partial curve]","24.1 µM [falling, partial curve]",
CCOc1ccccc1CN1CCC(Cc2nc(-c3cccnc3)n[nH]2)C1 (stereo unspecified),"21.5 µM [falling, partial curve]","17.1 µM [falling, partial curve]",
Cc1ccccc1Sc1ccc(/C=C2\SC(=S)NC2=O)cc1[N+](=O)[O-],"30.4 µM [falling, single point]","24.1 µM [falling, partial curve]","27.1 µM [falling, single point]"
COc1ccc(CC(=O)Nc2ccc3ncnc(N4CCCC4)c3c2)c(Cl)c1,"5.41 µM [falling, full curve]","21.5 µM [falling, single point]",
CCN1CCC[C@@H]1CNC(=O)c1ccc2c(c1)NC(=O)/C(=C/c1ccccc1F)S2,"10.8 µM [falling, partial curve]","24.1 µM [falling, single point]",
CNC1CCN(C(Cc2cccc(-c3ccncc3)c2)C(=O)c2sc3c(F)ccc(F)c3c2Cl)CC1 (stereo unspecified),"21.5 µM [falling, partial curve]","12.1 µM [falling, partial curve]",
Nc1ncnc2c1c(-c1ccc(Oc3ccccc3)cc1)nn2[C@@H]1CCCNC1,"19.2 µM [falling, partial curve]","21.5 µM [falling, partial curve]",
Nc1nc(NCc2ccc(Cl)cc2Cl)cc(C2CC(O)C2)n1 (stereo unspecified),"17.1 µM [falling, partial curve]","27.1 µM [falling, partial curve, poor fit]",
